Experimental data published in PubChem BioAssay (Tox21).
Inconclusive means that the source gave no clear call. Such entries were picked first, then a sample of the others. No potency is given beside an inconclusive call; the fits are too rough. The source made the active and inactive calls. Calls follow the shape of the dose curve; as a rule, active = well fitted curve in the direction sought with a large enough effect in the repeat runs; inconclusive = weak or mixed curves; inactive = no such curve, though single readings can be large; an effect the other way counts as inactive or inconclusive.

test: qHTS assay to identify small molecule HDAC inhibitors (AID 1259364); details: HCT-116 HDAC-Glo I/II luminescence, 2 h; series mostly up to 92.4 µM; activity change, negative = inhibition: at the top concentration;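 also: wild-type HCT-116 cells with endogenous class I/II HDAC activity; nearly all actives have a fitted effect of over 45% in size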; as to activity change, negative = inhibition: top concentration of the series differs between compounds
Summary of the method: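 HCT-116 (wild type), 1,500 cells/well, overnight; compound 2 hr 37C 5% CO2; HDAC-Glo I/II reagent 30 min RT; luminescence readout.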
% is scaled to controls: 0 for no effect and ±100 for the full control effect; potency is read from the fitted curve at half-maximal effect; tags tell the direction and shape of the fitted curve.

Compound | activity change, negative = inhibition | Potency
Cc1onc(-c2ccccc2)c1C(=O)Cl | inactive: -4.39% [at 42.5 µM] | –
Brc1c(NC2=NCCN2)ccc2nccnc12 | inactive: 4.6% [at 42.5 µM] | –
CNC(=S)NC | inactive: 3.52% | –
CC(=O)c1ccc2c(c1)N(CCCN(C)C)c1ccccc1S2 | – | inconclusive [inhibitor, partial curve, poor fit]

test: qHTS assay to identify small molecule agonists of the sonic hedgehog signaling (Shh) pathway - cell viability counter screen (AID 1259366); details: NIH/3T3 Gli1-Luc viability, CellTiter-Fluor, 24 h; series mostly up to 92.4 µM; viability change, negative = cytotoxic: at the top concentration; also: nearly all actives have a fitted effect of over 50% in size
Summary of the method: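 CellTiter-Fluor fluorescence read-out, 1 hr at 37C, added after 23hr compound exposure. Cells: 3T3 Gli1-Luc, an NIH/3T3 clone with stably integrated Gli1-Luc reporter, plated 4hr before compound.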

Compound | Potency | viability change, negative = cytotoxic
CN1CCN(C2=Nc3ccccc3Oc3ccc(Cl)cc32)CC1 | inconclusive [cytotoxic, partial curve, poor fit] | –
CC[C@H]1CC[C@H](NCc2cc3c(cc2OC)[C@H]2C[C@H]2C(=O)N3C)[C@H](c2ccccc2)N1 | inconclusive [cytotoxic, full curve] | –
O=C(O)Cc1c(Cl)ccc(Cl)c1Cl | – | inactive: 9.81%
CCCCCC(C)=O | inconclusive [cytotoxic, single point] | –
COc1ccc([C@@H]2Sc3ccccc3NC(=O)[C@@H]2O)cc1 | – | inactive: 1% [at 42.5 µM]
CCc1c2c(nc3ccc(OC(=O)N4CCC(N5CCCCC5)CC4)cc13)-c1cc3c(c(=O)n1C2)COC(=O)[C@]3(O)CC | inconclusive [rising, partial curve] | –
Cc1occc1C(=O)Nc1ccc(C(=O)N2CCC(F)(F)/C(=C\C(=O)N3CCC(N4CCCCC4)CC3)c3ccccc32)cc1 | inconclusive [cytotoxic, partial curve] | –
CC(=O)c1ccc2c(c1)N(CCCN(C)C)c1ccccc1S2 | inconclusive [cytotoxic, partial curve] | –
